The experiment has as its target T1, Recombinant rat tail Type 1 Collagen (rat, UniProt P02454 152-1207; P02466 86-1125).
T1 construct: collagen alpha-1(I) chain, rat (rat tail type 1 collagen); collagen alpha-2(I) chain, rat (rat tail type 1 collagen); rat tail collagen is commonly extracted from tissue; also called Collagen 1; collagen I; source: bought: Bbiosciences (1 mg/ml)
Nature of the experiment: SPR; BIAcore T200; type 1 collagen immobilised on a CM5 chip by amine coupling (2622 RU), 25 °C; rTRIP-1 as analyte, 0–200 μg at 2-fold dilution, 20 μL/min, PBS-P (0.5% Surfactant P20) pH 7.4; steady state analysis; apparent. The note with it: both partners purified. On the technique in general: SPR reads the build-up and loss of mass on a sensor chip optically.

T1 sequence (P02454 152-1207, chain 1 of 2): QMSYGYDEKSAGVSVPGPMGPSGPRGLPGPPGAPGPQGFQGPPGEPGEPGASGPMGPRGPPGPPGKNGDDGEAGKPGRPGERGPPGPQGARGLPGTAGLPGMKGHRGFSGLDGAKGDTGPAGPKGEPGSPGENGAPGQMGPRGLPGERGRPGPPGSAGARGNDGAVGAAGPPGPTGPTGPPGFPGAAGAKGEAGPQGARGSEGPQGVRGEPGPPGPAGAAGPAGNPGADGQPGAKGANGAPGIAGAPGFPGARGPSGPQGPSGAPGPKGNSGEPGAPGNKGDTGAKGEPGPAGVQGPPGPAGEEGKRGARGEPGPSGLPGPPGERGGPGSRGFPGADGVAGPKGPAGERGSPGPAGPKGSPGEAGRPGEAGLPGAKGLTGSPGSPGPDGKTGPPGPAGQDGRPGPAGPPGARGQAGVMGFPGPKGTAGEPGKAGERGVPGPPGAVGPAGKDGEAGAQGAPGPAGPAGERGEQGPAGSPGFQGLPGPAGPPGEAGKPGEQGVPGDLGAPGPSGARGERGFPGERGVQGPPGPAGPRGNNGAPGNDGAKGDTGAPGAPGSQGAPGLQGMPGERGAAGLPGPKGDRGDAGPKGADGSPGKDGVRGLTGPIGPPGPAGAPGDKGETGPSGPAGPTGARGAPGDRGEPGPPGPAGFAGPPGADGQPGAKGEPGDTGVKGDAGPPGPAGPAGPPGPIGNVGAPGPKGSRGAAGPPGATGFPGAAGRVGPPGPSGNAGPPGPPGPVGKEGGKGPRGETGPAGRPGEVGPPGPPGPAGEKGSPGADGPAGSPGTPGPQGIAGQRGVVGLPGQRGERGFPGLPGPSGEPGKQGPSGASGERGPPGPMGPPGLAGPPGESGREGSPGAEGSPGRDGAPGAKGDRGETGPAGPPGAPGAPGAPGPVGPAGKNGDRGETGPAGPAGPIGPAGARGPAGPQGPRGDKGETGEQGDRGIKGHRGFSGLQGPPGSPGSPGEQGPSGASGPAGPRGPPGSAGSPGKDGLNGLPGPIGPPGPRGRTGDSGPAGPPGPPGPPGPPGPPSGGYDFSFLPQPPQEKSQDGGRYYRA
T1 sequence (P02466 86-1125, chain 2 of 2, further chain): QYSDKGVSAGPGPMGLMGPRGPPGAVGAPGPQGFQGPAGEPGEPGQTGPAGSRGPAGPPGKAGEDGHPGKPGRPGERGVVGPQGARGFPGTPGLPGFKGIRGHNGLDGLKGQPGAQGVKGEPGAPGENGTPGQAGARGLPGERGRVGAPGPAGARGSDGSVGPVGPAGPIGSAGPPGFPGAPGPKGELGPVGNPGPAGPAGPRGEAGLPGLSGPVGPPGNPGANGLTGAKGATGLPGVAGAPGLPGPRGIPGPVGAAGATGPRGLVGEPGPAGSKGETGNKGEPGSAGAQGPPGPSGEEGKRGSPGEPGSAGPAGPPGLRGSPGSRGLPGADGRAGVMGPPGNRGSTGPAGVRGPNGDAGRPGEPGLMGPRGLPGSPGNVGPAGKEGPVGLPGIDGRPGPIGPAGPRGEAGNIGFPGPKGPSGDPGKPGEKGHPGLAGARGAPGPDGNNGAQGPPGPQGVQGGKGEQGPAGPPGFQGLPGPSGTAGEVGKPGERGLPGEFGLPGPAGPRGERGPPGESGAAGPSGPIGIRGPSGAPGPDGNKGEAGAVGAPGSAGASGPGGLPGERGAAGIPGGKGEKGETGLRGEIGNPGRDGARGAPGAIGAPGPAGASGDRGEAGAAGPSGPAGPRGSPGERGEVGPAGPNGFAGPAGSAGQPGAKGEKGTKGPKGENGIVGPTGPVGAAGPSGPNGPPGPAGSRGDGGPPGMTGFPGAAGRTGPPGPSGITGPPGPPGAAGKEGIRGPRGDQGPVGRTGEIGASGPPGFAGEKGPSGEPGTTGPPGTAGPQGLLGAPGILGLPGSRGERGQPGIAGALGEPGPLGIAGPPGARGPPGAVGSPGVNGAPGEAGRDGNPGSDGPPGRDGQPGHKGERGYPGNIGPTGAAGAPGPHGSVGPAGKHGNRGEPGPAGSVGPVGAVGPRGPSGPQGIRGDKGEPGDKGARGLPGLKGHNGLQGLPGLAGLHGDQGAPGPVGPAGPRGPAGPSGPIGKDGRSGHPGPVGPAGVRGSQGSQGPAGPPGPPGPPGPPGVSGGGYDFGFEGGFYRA

B1: Recombinant TRIP-1 (TGF beta receptor II interacting protein 1) (natural protein)
chain: not shown
notes: TRIP-1 (eIF3i, subunit i of eukaryotic initiation factor 3); 973-bp fragment corresponding to the coding region of TRIP-1 cloned into the Sph I/Sal I sites of pQE-30; also called rTRIP-1; eIF3i; source: E. coli (pQE-30 plasmid), purified (Ni-NTA Superflow, native conditions), dialyzed, lyophilized
B1: the Kd is 48.6 µM.
